Laboratory results reported in PubChem BioAssay AID485281 (National Center for Advancing Translational Sciences (NCATS), 2010).
The campaign covered roughly 350,000 compounds. About 260 (0.074%) were called active. Inconclusive means that the source gave no clear call. Such entries were picked first, then a sample of the others. The call rests on the fitted dose curve; in most records, active means well fitted inhibition curve with a large enough effect; inconclusive means small, poorly fitted or top-dose-only effect; inactive means no such curve, though single readings can be large or run the other way. Where the call is inconclusive, the potency comes from a doubtful curve fit.

Molecular target: Ferritin light chain (Equus caballus) (UniProt P02791)
Chain of UniProt P02791 (P02791 whole entry, looked up): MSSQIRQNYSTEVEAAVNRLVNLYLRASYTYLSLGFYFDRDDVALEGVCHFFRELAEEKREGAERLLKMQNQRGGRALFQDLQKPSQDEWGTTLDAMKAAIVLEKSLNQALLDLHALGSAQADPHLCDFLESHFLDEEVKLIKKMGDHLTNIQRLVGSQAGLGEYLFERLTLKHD
Assay: qHTS Assay for Identification of Novel General Anesthetics; further: nearly all actives have a fitted effect of over 20% in size
Conditions: apoferritin/1-aminoanthracene competitive binding, fluorescence; activity change, negative = displacement: at 77.5 µM (top of the series)
Summary of the method: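 Concentration-response curves derived by four-parameter Hill fitting of normalized fluorescence, where compounds displaced 1-AMA from 10 uM horse apoferritin following a brief 10 min room-temperature incubation; propofol titration acted as positive control.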
On the % scale 0 is the no-effect control and ±100 the full control effect; potency means the concentration at half of the fitted maximal effect; tags describe the fitted curve by direction and shape.

| SMILES | activity change, negative = displacement | Potency |
| --- | --- | --- |
| CC(=O)N1CCCC1c1nc2ccccc2n1Cc1c(F)cccc1Cl (stereo unspecified) | inactive: -3.17% | – |
| CN(C)/C=C/C(=O)c1ccc(Oc2ncccn2)cc1 | inactive: -16.9% | – |
| COc1ccc(C(=O)c2sc(NC(C)C)nc2N)cc1OC | inactive: -23.9% | – |
| C[C@@H]1/C=C\CC(=O)OC[C@H](C)C(=O)N[C@@H](Cc2ccccc2)C(=O)OC1 | inactive: -13.4% [at 15.3 µM] | – |
| CC(C)NC(=O)NC(=O)COC(=O)c1ccccc1Oc1ccccc1 | – | inconclusive: 31.6 µM [inhibitor, partial curve] |
| COc1cc(OC)cc(C(=O)NC(=S)NCc2ccco2)c1 | – | inconclusive: 44.7 µM [inhibitor, partial curve] |
| O=C(Nc1ccccn1)c1ccc(Br)s1 | – | inconclusive: 20 µM [inhibitor, partial curve] |
| CC(C)(C)n1ncc2c(=O)n(CC(=O)OCc3ccccc3)cnc21 | – | inconclusive: 28.2 µM [inhibitor, partial curve] |
| CC(C)C(=O)Nc1cccc(C(=O)Nc2cc([N+](=O)[O-])ccc2Cl)c1 | – | inconclusive: 35.5 µM [inhibitor, partial curve] |
| NC(=O)C1CCN(C(=O)N2c3ccccc3Sc3ccccc32)CC1 | – | inconclusive: 25.1 µM [inhibitor, single point] |
| COc1ccc(C(OCCN2CCC[C@H](C(=O)O)C2)(c2ccc(OC)cc2)c2ccc(OC)cc2)cc1 | inactive: -7.17% | – |
| CCOc1cccc2c1OC1(C)CC2NC(=O)N1c1cccc(Cl)c1 (stereo unspecified) | – | inconclusive: 39.8 µM [inhibitor, partial curve] |
| C/C(=N\O)C(C)(C)Nc1ccc(Cl)cc1 | – | inconclusive: 11.2 µM [inhibitor, partial curve] |
| CCSc1nnc(N2C(=O)C(O)=C(C(=O)c3ccco3)C2c2cccc(OC)c2)s1 (stereo unspecified) | – | inconclusive: 28.2 µM [inhibitor, single point] |
| COc1cccc(NC(=O)c2nnn(CCc3ccccc3)c2N)c1 | – | inconclusive: 44.7 µM [inhibitor, single point] |
| O=C(Cc1cccc2ccccc12)NNC(=O)c1cccs1 | inactive: -6.75% | – |
| COc1ccc(C2CC2/C(=N/OC(=O)c2cccs2)c2ccccc2)cc1 (stereo unspecified) | – | inconclusive: 17.8 µM [inhibitor, partial curve] |
| N#CC1=C2N=C(N)c3c(sc4c3CCCCC4)N2C2=C(C(=O)CCC2)C1c1ccccc1 (stereo unspecified) | – | inconclusive: 7.94 µM [inhibitor, partial curve] |
| COc1ccc(C(=O)c2cnc3cc4c(cc3c2C)OCO4)cc1 | – | inconclusive: 50.1 µM [inhibitor, single point] |
| Cc1csc2nc(COC(=O)c3ccc(F)cc3)cc(=O)n12 | – | inconclusive: 31.6 µM [inhibitor, partial curve] |
| Cc1c([N+](=O)[O-])cc(C(=O)Oc2cccc(C(=S)N3CCOCC3)c2)cc1[N+](=O)[O-] | – | inconclusive: 35.5 µM [inhibitor, partial curve] |
| CCCCCCCCCc1nc(N)n[nH]1 | – | inconclusive: 25.1 µM [inhibitor, partial curve, poor fit] |
| CC(=O)c1c(C)[nH]c(C(=O)CSc2nnc(C3CCCCC3)n2N)c1C | – | inconclusive: 25.1 µM [inhibitor, single point] |
| CC(=O)Nc1ccc(NC(=O)CCc2c(C)nc3c(c(C)nn3-c3ccc(C)cc3)c2C)cc1 | – | inconclusive: 11.2 µM [inhibitor, partial curve] |

| SMILES | activity change, negative = displacement | Potency |
| --- | --- | --- |
| O=C(c1scc2c1CCCC2)N1CCCCC1 | – | inconclusive: 22.4 µM [inhibitor, partial curve, poor fit] |
| CCCn1c(=N)n(CC(=O)c2ccco2)c2ccccc21 | – | inconclusive: 25.1 µM [inhibitor, partial curve] |
| CCC(CC)C(=O)N1CC(=O)Nc2ccc(C)cc2C1c1ccccc1 (stereo unspecified) | inactive: -15.4% | – |
| COC1=C(OC)C(=O)C(CCCCCCCCCCO)=C(C)C1=O | – | inconclusive: 31.6 µM [inhibitor, partial curve] |
| CCOC(=O)c1c(NC(=S)Nc2ccc(OC)cc2)sc2c1CCC2 | – | inconclusive: 22.4 µM [inhibitor, single point] |
| Cn1cccc1CNC(=O)Nc1ccccc1 | – | inconclusive: 31.6 µM [inhibitor, single point] |
| CC(C)c1cnc(NC(=O)Cc2ccccc2)s1 | – | inconclusive: 28.2 µM [inhibitor, partial curve] |
| COc1ccc(C(O)c2coc3ccc(O)c(CN(C)C)c23)cc1 (stereo unspecified) | inactive: -3.93% | – |
| CCOC(=O)C1=C(COC(=O)/C=C/c2cccc(OC)c2OC)NC(=O)NC1C (stereo unspecified) | – | inconclusive: 35.5 µM [inhibitor, single point] |
| O=C(CC1C(=O)NCCN1Cc1cccc(Oc2ccccc2)c1)NCC1CCOCC1 (stereo unspecified) | – | inconclusive: 35.5 µM [inhibitor, single point] |
| CCN(Cc1nc(-c2ccccc2)no1)C(=O)COc1cccc(OC)c1 | inactive: -11% | – |
| Cc1ccccc1Cn1ccc(NC(=O)c2cc3ncc(Br)cn3n2)n1 | – | inconclusive: 15.8 µM [inhibitor, partial curve] |
| NC(=O)c1ccc(-c2ccc(Br)cc2)o1 | – | inconclusive: 39.8 µM [inhibitor, partial curve] |
| CCOC(=O)N1CCC(Nc2ccc(N3C(=O)C4CCCCC4C3=O)cc2[N+](=O)[O-])CC1 (stereo unspecified) | – | inconclusive: 14.1 µM [inhibitor, partial curve] |
| O=C(CSc1nnnn1-c1ccccc1)NC(=O)Nc1ccc2c(c1)OCCO2 | – | inconclusive: 2.82 µM [inhibitor, full curve] |
| CC(=O)n1cc(C(C[N+](=O)[O-])SCCN)c2ccccc21 (stereo unspecified) | – | inconclusive: 31.6 µM [inhibitor, partial curve] |
| CCOC(=O)c1ccc(CN2C(=O)c3ccccc3S2(=O)=O)cc1 | inactive: -19.7% | – |
| Cc1ccc(/C=C/C(=O)N2CCN(c3ccc(F)cc3)CC2)o1 | inactive: -13% | – |
| O=C(CSc1nc2[nH]ncc2c(=O)n1-c1ccccc1)N1CCCc2ccccc21 | – | inconclusive: 35.5 µM [inhibitor, partial curve] |
| O=[N+]([O-])c1ncccc1OCc1ccccc1Br | – | inconclusive: 25.1 µM [inhibitor, partial curve] |
| COc1ccc(-c2noc(CSc3nnc(CCc4ccccc4)n3-c3ccccc3)n2)cc1OC | inactive: 4.61% | – |
| COc1ccc(/C=N/n2c(C3CCCCC3)n[nH]c2=S)c(OC)c1 | – | inconclusive: 31.6 µM [inhibitor, partial curve] |
| COc1ccc(CN2C(=O)NC3(CCCCC3)C2=O)cc1F | – | inconclusive: 35.5 µM [inhibitor, single point] |
| COc1ccc(OCc2cc(C(=O)NC(C)c3csc(C)n3)no2)c(Cl)c1 (stereo unspecified) | – | inconclusive: 31.6 µM [inhibitor, partial curve] |

| SMILES | activity change, negative = displacement | Potency |
| --- | --- | --- |
| Cc1ccc(CC(=O)Nc2ccccc2N2CCOCC2)cc1C | – | inconclusive: 35.5 µM [inhibitor, partial curve] |
| CCc1ccc(NC(=O)Cn2c(C(=O)OC)cc3oc(C)cc32)cc1 | – | inconclusive: 25.1 µM [inhibitor, partial curve] |
| Cc1cccc(Nc2ncnc3ccccc23)c1 | inactive: -6% | – |
| C=C1C(=O)OC2C[C@@]3(C)CCCC(C)C3=CC12 (stereo partly specified) | – | inconclusive: 28.2 µM [inhibitor, partial curve] |
| Cc1cccnc1Nc1nc(-c2ccccn2)cs1 | inactive: -3.05% | – |
| CS(=O)(=O)Nc1ccc(Cc2ccc(NS(C)(=O)=O)cc2)cc1 | inactive: -9.43% | – |
| Cc1ccc(CCNC(=O)C(C)n2nc(C)c3c(C)n(-c4ccc(C)cc4)nc3c2=O)cc1 (stereo unspecified) | – | inconclusive: 31.6 µM [inhibitor, single point] |
| CCCCn1c(C)cc2cc(O)ccc21 | – | inconclusive: 35.5 µM [inhibitor, partial curve] |
| CC(C)c1ccc(NC(=O)c2cnn(-c3ccccc3)c2NC(=O)c2ccco2)cc1 | – | inconclusive: 17.8 µM [inhibitor, partial curve] |
| CN(C)c1ccc(NC(=S)c2ccc3ccccc3n2)cc1 | inactive: -2.79% | – |
| O=C(CCS(=O)(=O)c1ccccc1)N1CCN(c2ccccc2)CC1 | inactive: -5.16% | – |
| CCCn1nc(C(=O)Oc2ccc3c(C)cc(=O)oc3c2)c2ccccc2c1=O | inactive: 184% | – |
| COc1ccccc1C1=NOC(COC(=O)c2ccc(Br)cc2)C1 (stereo unspecified) | – | inconclusive: 20 µM [inhibitor, partial curve] |
| CCCCOCCCNc1ncnc2c1[nH]c1ccccc12 | – | inconclusive: 31.6 µM [inhibitor, single point] |
| CC(C)N(Cc1nc(-c2ccccc2)no1)C(=O)CSc1ccccc1 | – | inconclusive: 56.2 µM [inhibitor, single point] |
| CC(C)(C)C(=O)Cn1c(=O)n(CCCCCC(=O)NCc2ccccc2Cl)c(=O)c2sccc21 | inactive: -3.12% | – |
| CC1Sc2ccc(S(=O)(=O)N3CCC(C(=O)Nc4cccc(Cl)c4)CC3)cc2NC1=O (stereo unspecified) | inactive: -14.3% | – |
| Cc1ccc(Nc2nc(-c3sc(N)nc3C)cs2)cc1 | – | inconclusive: 35.5 µM [inhibitor, single point] |
| O=C(CNC(=O)c1sc2ccccc2c1Cl)OCc1ccccc1 | – | inconclusive: 25.1 µM [inhibitor, partial curve] |
| Cc1nn(C)c(C)c1Nc1ccc(N2C(=O)C3C4C=CC(C4)C3C2=O)cc1[N+](=O)[O-] (stereo unspecified) | – | inconclusive: 22.4 µM [inhibitor, partial curve] |
| COc1ccccc1-c1cn(-c2ccccc2)c(=S)[nH]1 | inactive: -6.33% | – |
| COc1ccccc1NC(=O)C1=C(C)Nc2nc(-c3ccco3)nn2C1c1cccc(C)c1 (stereo unspecified) | inactive: -16.3% | – |
| O=C(c1cc(COc2ccc(F)cc2F)on1)N1CC[C@@H]2CCCC[C@H]2C1 | – | inconclusive: 8.91 µM [inhibitor, single point] |
